Screen size: about 150,000 compounds; about 540 (0.36%) showed an effect of 50% or more. This is one part of the list.
What follows are compounds tested on Plasmodium falciparum (assay: Primary screen in NF54 nanoGlo assay, in single point, at 2uM, 72h; a lower Z score goes with more inhibition). Conditions: timepoint 72 hour.
Type: functional, Erythrocyte

Compound | % Inhibition [%] | Z score
O=S(=O)(Cc1ccccc1)NCC1CCN(c2ncccn2)CC1 | -2 | 0.39
COc1ccnc(NC(=O)Cc2cccs2)c1 | 5 | -0.55
CCc1noc(C)c1CN1CCOc2ccccc2[C@@H]1C(=O)O | 5 | -0.92
COc1ccccc1NC(=O)OCC#CCOC(=O)Nc1ccccc1OC | -2 | 0.32
CC12CCN(c3ncccn3)CC1C2(F)F (stereo unspecified) | 1 | -0.28
Cc1nnc(N2CCN(Cc3cnc(-c4ccccc4)o3)CC2)n1C | -3 | 0.44
Cc1oncc1CNS(=O)(=O)c1c2c(nn1C)CCCC2 | -5 | 0.8
COc1ccc(CNC(=O)c2cc(-c3ccc(OC)cc3)ns2)cc1 | -5 | 0.65
O=C(NC1CCCCC1)N[C@H]1[C@H](O)[C@@H](N2CCN(c3ccccc3)CC2)[C@@H]2OC[C@H]1O2 | 8 | -0.94
Cc1c(C(=O)N2CCN(c3ccccc3F)C[C@@H]2C)cnn1C1CCCC1 | -1 | 0.1
c1ccc2c(CNCCc3c[nH]c4ccccc34)c3ccccc3cc2c1 | 6 | -0.71
CCc1ccc(S(=O)(=O)c2c(C(=O)N3CCCC3)cnc3ccc(C)cc23)cc1 | -6 | 1.08
CC[C@H]1CCCCN1Cc1cc2ccc(F)cc2n(Cc2ccncc2)c1=O | 15 | -1.87
N#C[C@H]1CCCN(c2ncnc3c2CCN(C(=O)c2ccco2)CC3)C1 | -8 | 1.01
CC1CCC(C)(NC(=O)c2cc3c([nH]c2=O)CCCC3=O)CC1 (stereo unspecified) | 1 | -0.13
COc1cc(N[C@@H](Cn2ccnc2)C(C)C)ncn1 | 3 | -0.27
CCN(CCO)C(=O)C[C@]1(c2ccccc2)CC(=O)N(Cc2ccc3c(c2)OCO3)C1=O | 5 | -0.64
C[C@H]1Cc2ccccc2N1C(=O)c1cn(CCN(C)C)c2ccccc12 | -14 | 1.99
Nc1c(N2CCCC2)c(=O)n(CC(=O)Nc2ccc(Br)cc2)c(=O)n1Cc1ccccc1 | -5 | 0.63
COc1ccc(S(=O)(=O)c2cnc(N3CCN(C4CCCCC4)CC3)nc2N)cc1 | -4 | 0.66
Cc1nc2c(N)c(Cl)c(Cl)c(N)c2[nH]1 | -6 | 0.79

Compound | % Inhibition [%] | Z score
Cc1ccccc1-c1cnc(NC(=O)NCC2CCC(O)C2)s1 (stereo unspecified) | -13 | 1.4
Cc1nc(C)n(CC2CCCCN2CC2CCCCO2)n1 (stereo unspecified) | -7 | 0.76
CC[C@H](NCc1c(C)cc(C)c(COC(C)=O)c1C)c1ccnn1C | 0 | 0.04
Cc1ccc(-c2cc(C(=O)N3CCC[C@@](F)(c4nc(C5CC5)no4)C3)[nH]n2)cc1C | 5 | -0.65
C[C@H](NC(=O)NCc1nc(C(C)(C)C)co1)c1cncc(F)c1 | 9 | -1.09
Cc1cc(=O)c(CO)nn1Cc1nc2c(s1)C(C)(C)CC(C)(C)C2 | -5 | 0.57
Cc1nsc(N2CC(CC(F)F)C2)n1 | -11 | 1.37
CCNc1ncc([C@@H]2C[C@H](NC(C)=O)C[C@H](c3ccc(Cl)cc3)O2)cn1 | -4 | 0.65
CCOCCCC(=O)NC1(C)CN(C(=O)OC)C1 | -10 | 1.23
CN(CCc1ccccc1)[C@@H](C(=O)O)c1ccc(N)c(F)c1 | 1 | -0.3
N=C(NOC(=O)Cc1ccccc1)c1ncon1 | 3 | -0.55
CCC(=O)Nc1ccccc1-c1nc2ccccc2n(CC(=O)Nc2c(C)cccc2C)c1=O | -1 | 0.22
Cc1c(CC(=O)NC2CCCC2)c2c(n1C[C@H]1CCCO1)CCCC2=O | -2 | 0.32
O=C(N[C@H]1CCc2nccn2C1)C1CCOCC1 | -11 | 1.7
OC1(c2cn(Cc3cn4cccnc4n3)nn2)CCCCC1 | 13 | -1.7
Oc1nc2ccccc2nc1N1CCCCC1 | 3 | -0.4
CO[C@@H](C)c1nsc(N[C@H]2CC[C@H](NC(=O)c3cc(C)on3)CC2)n1 | 3 | -0.43
CCOc1cc(C(=O)N[C@@](C)(CC)c2nc(C)cs2)on1 | -5 | 0.55
CO[C@H]1COCC[C@@H]1NC(=O)c1ccc(Cl)c(Cl)c1 | -11 | 1.16
CC(C)CC1NC(=O)C(C)NC(=O)C(CC(C)C)OC(=O)CCCNC1=O (stereo unspecified) | -3 | 0.52
COc1cccc(Cn2nnc3cc(C(=O)Nc4ccc5c(c4)OCO5)ccc32)c1 | 0 | 0.03

Compound | % Inhibition [%] | Z score
Clc1cccc(-n2cc(-c3noc(-c4cccnc4)n3)nn2)c1 | -20 | 3.83
COc1cccc(C(=O)N2CCN(c3cc(-n4ccnc4C)ncn3)CC2)c1 | -1 | 0.19
C[C@@]1(C(=O)N2CC(c3cccc(Cl)c3)C2)CCCO1 | -1 | 0.17
Cc1onc(-c2ccccc2)c1C(=O)Nc1cccc(NC(=O)c2c(-c3ccccc3)noc2C)c1 | -11 | 1.42
CN1CC[C@@H]2CN(C(=O)CCC3CCCCC3)C[C@]2(C(=O)O)C1 | -3 | 0.41
CCOc1ccccc1CN(Cc1cnc(COC)nc1)C1CC1 | -10 | 1.52
Cc1nscc1C(=O)N[C@H](C(N)=O)C(C)(C)C | -5 | 0.51
CC(=O)Nc1nc(CS(=O)(=O)c2ccoc2C)cs1 | -4 | 0.48
COc1ccc(CNC(=O)[C@H]2CCCN(c3cnn(C)c(=O)c3)C2)c(OC)c1 | 27 | -3.06
Cc1nc(C)n(CC2CCCCN2C(C)C(=O)NCc2ccco2)n1 (stereo unspecified) | -8 | 0.85
C[C@H](Oc1ccnc(N)c1)c1ccccc1 | 3 | -0.47
CN1C(=O)c2ccc(-c3ccc(F)cc3F)cc2O[C@H]2CN(S(C)(=O)=O)C[C@H]21 | -3 | 0.41
CC(C)(C)C(=O)N1CCc2ccc(OCC(=O)NCc3ccccc3)cc2[C@@H]1c1ccc(F)cc1 | -12 | 2.3
Cc1ccccc1OC[C@H](C)NC(=O)N(C)Cc1nccs1 | -14 | 1.8
O=C(O)CCc1cc2n(n1)CCCN(c1noc(-c3ccccc3)n1)C2 | 10 | -1.85
Cn1nccc1-c1nc([C@@H]2CN(Cc3ccccc3)CCO2)no1 | -10 | 0.97
CC(C)(C)NC(=O)NC[C@H]1CCCN1c1nccs1 | -10 | 1.84
O=C(Nc1nc2c(s1)CN(C(=O)c1cccs1)CC2)NC1CCCC1 | -6 | 0.94
C[C@@H]1NC2(CCN(S(=O)(=O)c3ccc(Cl)cc3)CC2)N(CC2CC2)C1=O | -15 | 1.66
COCCN(CC(=O)N1N=C(c2ccc(OC)cc2)C[C@H]1c1ccc2c(c1)OCO2)C(=O)C1CCC1 | -5 | 1.03
COc1cccc(N2CCN(C(=O)c3coc(NC(=O)c4ccncc4)n3)CC2)c1 | 6 | -0.83

Compound | % Inhibition [%] | Z score
COc1ccc([C@H]2NCCc3c2[nH]c2ccccc32)cc1CN1C(=O)c2ccccc2C1=O | -3 | 0.43
Cc1ccc(S(=O)(=O)N2CCN(C(=O)c3ccccc3)[C@@H]2c2ccc(Cl)cc2Cl)cc1 | 35 | -3.98
O=C1NCCC[C@@H]1NC(=O)[C@H]1CN(C(=O)c2cccc(F)c2)CCN1C(=O)c1cccs1 | -10 | 1.31
Cc1ccc([C@@]2(C(=O)NCc3cc(N4CCOCC4)ncn3)CC2(C)C)cc1 | 2 | -0.42
CC(C)(C)c1csc(CNC(=O)c2ccc(C#N)nc2)n1 | -4 | 0.49
CCn1nc(-c2nc3c([nH]2)CCCNC3=O)c2ccccc21 | -3 | 0.64
COc1nc(C)cc(N2C3CCC2CC(N(C)C(=O)c2ccccc2)C3)n1 (stereo unspecified) | -3 | 0.49
CC(=O)C1(C(C)=O)[C@H](c2ccc(F)cc2)C1(C#N)C#N | 41 | -5.28
Cc1ccc(CNC(=O)c2ccc(-c3ccco3)[nH]c2=O)n1C | -7 | 0.87
CCC[C@H](NC(=O)c1cc(OC)ccn1)c1nccn1C | -7 | 1.3
O=C(NCC(=O)N1CCc2ccccc2C1)C1CCCCC1 | -1 | 0.16
CCOc1ccccc1[C@H]1CC(=O)N(Cc2ccc(F)cc2)c2c1c(C)nn2-c1nc(C)cc(C)n1 | -9 | 1.25
COC(=O)C1CCC(C(=O)N2CCOC3(CCCCCC3)C2)CC1 (stereo unspecified) | -13 | 1.3
CCc1cccc(NC(=O)c2cn(-c3ccc(-c4noc(C5CC5)n4)cc3)nc2C)c1 | -15 | 2.88
Brc1cccc2c(N3CCOCC3)nccc12 | -10 | 1.17
CCN(CC(=O)Nc1nc(-c2ccccc2)cn1-c1ccc(C(C)C)cc1)C(=O)C1CCCC1 | 1 | -0.12
Cn1cc(-c2nccnc2CNC(=O)c2cccs2)cn1 | -11 | 1.2
CC(=O)c1cn(C[C@H]2CCCCO2)c(=O)n(C)c1=O | -14 | 2.52
Cc1nnc2c(N3CCN(C(=O)c4ccc(C(F)(F)F)nc4)CC3)nccn12 | -16 | 2.7
CC(C)(C)CC(=O)N1CC[C@H](Oc2ccncn2)C1 | -1 | 0.08

From ChEMBL document CHEMBL4888484, “Replenishing the malaria drug discovery pipeline: Screening and hit evaluation of the MMV Hit Generation Library 1 (HGL1) against asexual blood stage Plasmodium falciparum ,using a nano luciferase reporter read-out” (2022)
